{
  "source": "PubChem BioAssay AID1347120",
  "about": "(National Center for Advancing Translational Sciences (NCATS), 2019)",
  "note": "The campaign covered roughly 390,000 compounds. About 930 (0.24%) were called active. This list was built around the results that the source calls inconclusive (neither active nor inactive); the mix of calls is not that of the screen. Calls follow the shape of the dose curve; as a rule, active = well fitted activation curve with a large enough effect; inconclusive = small, poorly fitted or top-dose-only effect; inactive = no such curve, though single readings can be large or run the other way. A potency beside an inconclusive call is a rough fit, not a confirmed value. Potency is read from the fitted curve at half-maximal effect; tags tell the direction and shape of the fitted curve.",
  "data": [
    {"test": "qHTS for Suppressors of FUS Proteinopathy: Primary screen using FUS-linked yeast assay; also: nearly all actives have a fitted effect of over 55% in size;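 as to growth rescue (activation): plate controls were DMSO vehicle for no effect and reference control for full effect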", "conditions": "S. cerevisiae FUS-expressing, OD600, 24 h; Potency: growth rescue; growth rescue (activation): at 76.6 µM (top of the series)", "summary_of_the_method": "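FUS-expressing yeast, raffinose-pregrown, induced in 2% galactose minimal medium at OD 0.005; compounds in a dilution series, 24hr at 30C. Growth restoration read as absorbance at 600 nm. CP55940 positive control, DMSO negative.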", "values": [
      {"smiles": "O=C(Nc1ccccc1)C1=C[C@@H](c2ccc(C(F)(F)F)cc2)C[C@@H](OCCCCO)O1", "Potency": "inconclusive: 22.4 µM [activator, partial curve]"},
      {"smiles": "Cc1ccc(S(=O)(=O)N(CCC(=O)Nc2ccc(OC(F)(F)F)cc2)c2ccccc2)cc1", "Potency": "inconclusive: 3.16 µM [activator, full curve, poor fit]"},
      {"smiles": "CCCOc1ccccc1C(=O)Nc1nc2c(s1)CCCC2", "growth rescue (activation)": "inactive: 6.11%"},
      {"smiles": "O=C(c1cccc(N2C(=O)C3C4C=CC(C4)C3C2=O)c1)N1CCN(c2ccccc2Cl)CC1", "note": "(configuration not stated)", "Potency": "inconclusive: 15.8 µM [activator, partial curve]"},
      {"smiles": "Cc1cccc(NC(=O)c2ccc(NS(=O)(=O)c3cccc4cccnc34)cc2)c1", "Potency": "inconclusive: 20 µM [activator, partial curve, poor fit]"},
      {"smiles": "Cc1scc(C(=O)NNC(=S)NCC2CCCO2)c1C", "note": "(configuration not stated)", "growth rescue (activation)": "inactive: 2.15%"},
      {"smiles": "CC(C)c1ccc(NC(=O)c2cc(S(=O)(=O)NCCC3=CCCCC3)ccc2F)cc1", "Potency": "inconclusive: 15.8 µM [activator, partial curve]"},
      {"smiles": "COc1ccc(NC(=O)Cc2ccc(NC(=O)N3CCCCc4ccccc43)cc2)c(OC)c1", "Potency": "inconclusive: 25.1 µM [activator, single point]"},
      {"smiles": "CCCCCCn1c(N2CCN(c3ccccc3)CC2)nc2c1c(=O)n(C)c(=O)n2C", "Potency": "inconclusive: 15.8 µM [activator, partial curve, poor fit]"},
      {"smiles": "COc1ccc(CNC(=O)CN(C)S(=O)(=O)c2ccc3[nH]c4c(c3c2)CCCC4)cc1", "Potency": "inconclusive: 35.5 µM [activator, single point]"},
      {"smiles": "CCOc1cc(/C=N/NC(=O)N/N=C/c2ccc(O)c(OCC)c2)ccc1O", "growth rescue (activation)": "inactive: 20.3%"},
      {"smiles": "COC(=O)c1ccc(OCC2c3cc(OC)c(OC)cc3CCN2C(=O)Cc2ccc(OC)c(OC)c2)cc1", "note": "(configuration not stated)", "Potency": "inconclusive: 50.1 µM [activator, single point]"},
      {"smiles": "O=C(c1cccc(Cl)c1)N1CCN(Cc2ccncc2)CC1", "growth rescue (activation)": "inactive: -18.1%"},
      {"smiles": "COc1cc(C(=O)Nc2nnc(CC(C)(C)C)s2)cc(OC)c1OC", "Potency": "inconclusive: 28.2 µM [activator, single point]"},
      {"smiles": "COc1cccc(/C=C/C(=O)OCC(=O)N2CCN(c3ccccc3)CC2)c1", "Potency": "inconclusive: 50.1 µM [activator, partial curve, poor fit]"},
      {"smiles": "CC(=O)c1cn(CCOc2ccccc2C)c2ccccc12", "growth rescue (activation)": "inactive: -13.9%"},
      {"smiles": "CCC1=C(c2ccc(C)cc2)S(=O)(=O)N=C1N1CCC(C(=O)NCCc2cccc(OC)c2)CC1", "growth rescue (activation)": "inactive: 26.6%"},
      {"smiles": "Cc1cc(C(=O)COC(=O)c2cccnc2Cl)c(C)n1C", "growth rescue (activation)": "inconclusive: 49.3% [activator]"},
      {"smiles": "COc1ccnc(Oc2ccccc2)c1C(=O)N/C=N/OCc1ccccc1", "Potency": "inconclusive: 25.1 µM [activator, single point]"},
      {"smiles": "CCc1c(C)sc(NC(=O)C2CC(c3c(F)cccc3Cl)=NO2)c1C#N", "note": "(configuration not stated)", "growth rescue (activation)": "inactive: 1.97%"},
      {"smiles": "COC(=O)[C@@]12CCCN1[C@H](c1ccc(-c3ccc(OC)cc3)c(OC)c1)[C@H]1C(=O)N(C)C(=O)[C@H]12", "growth rescue (activation)": "inactive: 32.8%"},
      {"smiles": "O=C(Nc1cccc(S(=O)(=O)N2CCCCC2)c1)[C@@H]1CCCN1S(=O)(=O)c1ccccc1C(F)(F)F", "Potency": "active: 25.1 µM"},
      {"smiles": "CCOC(=O)c1ccc(NC(=O)C(CC)Sc2nncn3c2cc2oc(C)cc23)cc1", "note": "(configuration not stated)", "Potency": "inconclusive: 44.7 µM [activator, single point]"},
      {"smiles": "COc1ccc(C2=Nc3ccccc3N(CC(=O)Nc3cccc(C(C)=O)c3)C(=O)C2)cc1", "Potency": "inconclusive: 35.5 µM [activator, single point]"},
      {"smiles": "CCCNC(=O)C1(C)CCN(C(=O)c2ccc(C)c(F)c2)C1", "note": "(configuration not stated)", "growth rescue (activation)": "inactive: -5.49%"},
      {"smiles": "CCCc1[nH]n(-c2nc3ccccc3s2)c(=O)c1C=NCC(C)C", "Potency": "inconclusive: 14.1 µM [activator, partial curve]"},
      {"smiles": "COc1ccc2cc3c(N)nn(C(=O)Cc4ccc(Cl)cc4)c3nc2c1", "growth rescue (activation)": "inactive: 0.0313%"},
      {"smiles": "COc1ccccc1CNC(=O)CCCc1nnc2n(C)c(=O)c3sccc3n12", "growth rescue (activation)": "inactive: 3.49%"},
      {"smiles": "COc1ccc(C2(c3ccc(OC)cc3)NC(=O)N(CC(=O)Nc3ccccc3C)C2=O)cc1", "Potency": "inconclusive: 25.1 µM [activator, partial curve]"},
      {"smiles": "Cc1ccc(C)n1-c1ccc(-n2cnnn2)cc1", "Potency": "inconclusive: 6.31 µM [activator, partial curve]"},
      {"smiles": "COc1cc(NC(=O)Cn2cc(S(=O)(=O)N3CCC(C)CC3)c3ccccc3c2=O)cc(OC)c1OC", "Potency": "inconclusive: 31.6 µM [activator, single point]"},
      {"smiles": "O=C(c1ccccc1)c1ccc(C(=O)N2CCN(c3ccccc3Cl)CC2)cc1", "Potency": "inconclusive: 10 µM [activator, partial curve, poor fit]"},
      {"smiles": "COc1ccc(/C=C2\\CCCC3C2=NN(C(=O)CSc2ncn[nH]2)C3c2ccc(OC)cc2)cc1", "note": "(configuration not stated)", "Potency": "inconclusive: 28.2 µM [activator, partial curve, poor fit]"},
      {"smiles": "COc1ccccc1Cc1c(-c2ccc(C#N)cc2)nc2c3ccccc3ccn12", "Potency": "inconclusive: 39.8 µM [activator, partial curve, poor fit]"},
      {"smiles": "O=C(NCc1nc2ccccc2[nH]1)C1=C[C@@H](c2csc3ccccc23)C[C@@H](OCCCCO)O1", "Potency": "inconclusive: 35.5 µM [activator, single point]"},
      {"smiles": "CS(=O)(=O)N1C[C@]2(c3ccccc3)CC1Cc1ccccc12", "growth rescue (activation)": "inactive: 20.6%"},
      {"smiles": "COc1ccc(NC(=O)c2ccco2)cc1NC(=O)c1ccc(OC(C)C)cc1", "Potency": "inconclusive: 28.2 µM [activator, single point]"},
      {"smiles": "COc1cccc(OCCn2cc(C(C)=O)c3ccccc32)c1", "growth rescue (activation)": "inactive: 14.2%"},
      {"smiles": "N#Cc1ccc(N2C(=O)[C@@H]3C(C(=O)C(c4ccccc4)c4ccccc4)=NN[C@@H]3C2=O)cc1", "Potency": "inconclusive: 39.8 µM [activator, single point]"},
      {"smiles": "CC[C@]12c3[nH]c4ccc(OC)cc4c3CCN1C(=O)C(CC(=O)NCC13CC4CC(CC(C4)C1)C3)C[C@@H]2C(=O)N1CCN(C(=O)c2ccco2)CC1", "note": "(some centres not stated)", "Potency": "inconclusive: 17.8 µM [activator, partial curve, poor fit]"},
      {"smiles": "CC(C)CC(NC(=O)C1CCC(C)CC1)C(=O)OCC(=O)c1ccc(Cl)cc1", "note": "(configuration not stated)", "Potency": "inconclusive: 35.5 µM [activator, single point]"},
      {"smiles": "COc1ccc(S(=O)(=O)N2CCOCC2)cc1NC(=O)COC(=O)c1[nH]c(C)c(C(C)=O)c1C", "Potency": "inconclusive: 39.8 µM [activator, single point]"},
      {"smiles": "O=C(N/N=C/c1ccsc1)c1ccccn1", "growth rescue (activation)": "inactive: 15.5%"},
      {"smiles": "O=c1[nH]c(C2CCN(S(=O)(=O)c3ccc4c(c3)OCCO4)CC2)nc2c1nnn2Cc1cccc(F)c1", "Potency": "inconclusive: 20 µM [activator, partial curve, poor fit]"},
      {"smiles": "COc1ccc(-n2c(C)cc(/C=C3\\SC(=O)NC3=O)c2C)cc1", "Potency": "inconclusive: 22.4 µM [activator, partial curve, poor fit]"},
      {"smiles": "COc1ccc(-c2ccc(C(=O)Nc3ccc4c(c3)OCO4)c3occc23)c(C)c1", "Potency": "inconclusive: 39.8 µM [activator, partial curve, poor fit]"},
      {"smiles": "CCc1cc(CN2CCOCC2)c(NC(=O)c2ccccc2)s1", "Potency": "inconclusive: 50.1 µM [activator, partial curve, poor fit]"},
      {"smiles": "COc1cccc(N2CCN(C(=O)Cn3ncc4c3-c3ccccc3OC4)CC2)c1", "Potency": "inconclusive: 31.6 µM [activator, partial curve, poor fit]"},
      {"smiles": "O=C(C[n+]1cccc(NC(=O)c2ccccc2)c1)c1ccc(NC(=O)c2ccccc2)cc1", "Potency": "inconclusive: 28.2 µM [activator, partial curve]"},
      {"smiles": "COC(=O)[C@]12CCCCC=C1N(Cc1ccc(OC)cc1)C(=O)[C@@H]2CC(=O)NCC12CC3CC(CC(C3)C1)C2", "Potency": "inconclusive: 6.31 µM [activator, partial curve]"},
      {"smiles": "CC1=C(C(=O)Nc2cccnc2)C(c2ccc(F)cc2)n2nc(SCc3ccccc3)nc2N1", "note": "(configuration not stated)", "growth rescue (activation)": "inactive: -3.45%"},
      {"smiles": "Cc1nn(-c2ccccc2)c(C)c1/C=N/NC(=O)c1cc(-c2cccc3ccccc23)n[nH]1", "Potency": "inconclusive: 22.4 µM [activator, single point]"},
      {"smiles": "COc1cccc(-c2csc(N3CCN(C(=O)Nc4ccc(F)cc4)CC3)n2)c1", "Potency": "active: 12.6 µM"},
      {"smiles": "N#CCSc1nc2c(c(=O)n1Cc1ccco1)C1(CCCC1)Cc1ccccc1-2", "Potency": "inconclusive: 31.6 µM [activator, partial curve, poor fit]"},
      {"smiles": "O=C(Nc1ccc(Oc2ccccc2)cc1)C1CCN(c2nnc(-n3cccc3)s2)CC1", "growth rescue (activation)": "inactive: 21.8%"},
      {"smiles": "C[C@H](c1ccccc1)N1C[C@H](COCc2ccccc2)Oc2cc(N3CCC[C@H]3CO)ccc2S1(=O)=O", "Potency": "inconclusive: 28.2 µM [activator, partial curve, poor fit]"},
      {"smiles": "COc1ccc(NS(=O)(=O)c2cc(NC(=O)c3ccccn3)ccc2OC)cc1Br", "Potency": "inconclusive: 22.4 µM [activator, single point]"},
      {"smiles": "CN1c2ccccc2-c2nc(SCC(=O)Nc3ccccc3)ncc2S1(=O)=O", "growth rescue (activation)": "inactive: 6.64%"},
      {"smiles": "Cc1ccc(NC(=O)c2ccc3c(=O)n4c(nc3c2)CCCCC4)cc1F", "Potency": "inconclusive: 12.6 µM [activator, partial curve, poor fit]"},
      {"smiles": "COc1ccc(/C=C/C(=O)NC(=S)NNC(=O)c2cc(OC)c(OC)c(OC)c2)cc1", "growth rescue (activation)": "inactive: 14%"},
      {"smiles": "Cc1ccc(NC(=O)c2cc(-c3ccc4c(c3)OCO4)on2)cc1C", "Potency": "inconclusive: 50.1 µM [activator, single point]"},
      {"smiles": "CSc1cccc(NC(=O)c2ccc3c(c2)CCCN3S(C)(=O)=O)c1", "Potency": "inconclusive: 35.5 µM [activator, single point]"}
    ]}
  ]
}
